# Measured values from the supplement of paper PMC5499739.
# Over roughly 16,000 sequences, “Z-score” has its median near -0.37; the highest 2% begin near 3.2. The list shows a part of the results.
# System: RBM10 RRM1-ZnF (GST-tagged construct)
# Assay: RNAcompete 7-mer binding Z-score; higher = stronger binding preference
# How it was run: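 In 1 ml Hepes pH 7.8 buffer with KCl, NaCl, glycerol, DTT, BSA and glutathione Sepharose beads, GST-tagged RBM10 constructs (20 pmol) were incubated for 30 min at 4°C with 1.5 nmol of a designed pool of 241 399 RNAs up to 41 nt. Four 2-min washes at 4°C followed, and bound RNA was detected by microarray hybridisation. Heptamer motif enrichment was expressed as a one-sided Z-score across probes containing each motif.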
row,Sequence,RNAcompete 7-mer binding Z-score
1,GCACUAA,-0.34
2,UCGUGUA,-0.22
3,CCGCGCU,-0.496
4,UCCUUUG,-0.876
5,AUUGAUU,-0.373
6,UCCGCAC,-0.714
7,CACGCUU,-0.698
8,AUCAUGA,-0.435
9,UCACCUA,-0.746
10,UUUCCUC,-0.824
11,CGAUCCG,-0.629
12,GGCGAAA,0.829
13,UCGAACC,-0.668
14,AAAAAUG,0.069
15,CGGUGGC,1.14
16,CGGAGUU,0.387
17,AAAAAGC,-0.214
18,UUUACAC,-0.792
19,AGGAGCC,0.267
20,CAGCCAC,-0.561
21,CAUACGU,-0.415
22,GAGGUUC,0.238
23,AGUAAUG,0.368

row,Sequence,RNAcompete 7-mer binding Z-score
1,CGUUGCG,0.131
2,ACGCAGA,0.199
3,ACACAAG,-0.246
4,CAGCACC,-0.578
5,AACAACU,-0.483
6,CUAGCGG,0.417
7,UCCCUAG,-0.574
8,UCAACUU,-0.86
9,AAAGCCG,-0.561
10,UUGCGAU,-0.405
11,GUUAUGA,0.202
12,GCUAGAA,0.0918
13,CGGACGC,0.251
14,UAGUCUA,-0.383
15,ACAUGCG,-0.272
16,UUACUAA,-0.571
17,CGACCUU,-1.02
18,CACCCCC,-0.301
19,ACCGGAU,-0.272
20,CAGAAUG,0.378
21,UUUCAGU,-0.561
22,GCCCUUG,-0.607
23,AAGGGGA,4.47

row,Sequence,RNAcompete 7-mer binding Z-score
1,AUGAGCC,-0.318
2,CUAUCUU,-0.733
3,AGGCCUU,-0.743
4,UCAUCUU,-0.893
5,UCUCAGG,-0.0804
6,GACGUUG,0.0625
7,CUACCUU,-0.906
8,CUCAUGG,-0.103
9,AGUCCAG,-0.201
10,UAAUGAC,-0.305
11,CGGGCUC,0.209
12,UGUCACG,-0.376
13,GUUGAUA,0.511
14,UAAUAUC,-0.477
15,CCUGGCG,-0.0934
16,UCCUGAU,-0.737
17,UAGGAGC,1.6
18,UACUAGC,-0.591
19,AUGAAUA,-0.00246
20,GUCUCUA,-0.639
21,CUUGCUG,-0.746
22,UGUCGGG,1.27
23,UCGCCUA,-0.665

row,Sequence,RNAcompete 7-mer binding Z-score
1,CUGCCUC,-0.61
2,CAGUUCU,-0.828
3,UGCCACG,-0.435
4,AUACAAG,0.0268
5,UUUGCAA,-0.587
6,UUCGUCU,-0.636
7,AUUGGCA,0.293
8,UACCCCC,-0.386
9,UAUGCAC,-0.422
10,AUAGGGA,2.86
11,UACGAUU,-0.532
12,CUGCCGA,-0.581
13,CCUUACC,-0.805
14,CUGAACG,-0.249
15,ACUGGAC,0.102
16,UCUCGAU,-0.685
17,GCAGUAG,0.595
18,CCCUUGU,-0.802
19,GAGGACU,0.485
20,ACCACCU,-0.539
21,GGACAAC,0.374
22,AAUUCCG,-0.834
23,GAAUUCG,-0.21

row,Sequence,RNAcompete 7-mer binding Z-score
1,GCACAGC,-0.262
2,GGUGAGC,2.59
3,UAUGCGA,0.0885
4,CAUCUCA,-0.798
5,CUUCAUU,-0.753
6,AAACCUG,-0.503
7,CCGAUGU,-0.587
8,AUUGAAC,-0.318
9,AUACUGC,-0.532
10,GCUGUGA,0.124
11,UAGUCCU,-0.607
12,CUACCGC,-0.617
13,UUAGGAA,1.03
14,AAUAUCU,-0.539
15,ACGAUGG,1.54
16,CCCUCUA,-0.753
17,AUAUACU,-0.454
18,AUCACAG,-0.158
19,AUCUUGU,-0.808
20,AUUAAAA,-0.513
21,GUAGCAU,-0.0317
22,ACGCUUC,-0.85
23,CGCAGUG,-0.0967

row,Sequence,RNAcompete 7-mer binding Z-score
1,AUUCACG,-0.646
2,CAAGGUA,1.5
3,AACUAGA,-0.418
4,GGUCGAU,0.209
5,GGUCACA,0.322
6,CAAGAUU,-0.607
7,GCUCUGG,-0.0674
8,UAUGGAC,1.2
9,CCGUUGC,-0.574
10,GCUCAUU,-0.617
11,CGGUCAU,-0.191
12,UGCGCUU,-0.581
13,UCGCUCA,-0.642
14,CCGGCGC,-0.431
15,AUGCUGA,0.102
16,AUAAAUA,-0.262
17,ACCUCUC,-0.737
18,GACAUUC,-0.75
19,CCCCAGC,-0.175
20,CCAUCUG,-0.772
21,CCGGUAG,0.248
22,UCUCCCU,-0.519
23,ACUUUGC,-0.902

row,Sequence,RNAcompete 7-mer binding Z-score
1,UCUCACA,-0.763
2,AAGCAAU,-0.321
3,UGAGCAC,-0.292
4,AAAGGAU,2.99
5,CGAGGCU,0.0658
6,UUACAUU,-0.756
7,GUCUUCG,-0.532
8,CUGAUUC,-0.811
9,UAUUCUU,-0.847
10,CUUAGUC,-0.711
11,GGUUCAU,-0.178
12,CCGGGCU,-0.337
13,GGCCAAC,-0.0577
14,UUUGCUC,-0.867
15,CAAGGGU,2.65
16,UUGAAUG,0.131
17,UUGUGAU,-0.347
18,GCAUUGC,-0.246
19,CACCAAA,-0.675
20,GAUCUAC,-0.717
21,CUUUCUC,-0.945
22,GCCACCG,-0.171
23,UCCUACA,-0.896

row,Sequence,RNAcompete 7-mer binding Z-score
1,UCAGAAC,-0.383
2,UCUUAUC,-0.86
3,CACAAGG,0.764
4,UGUCAUA,-0.552
5,UACAUCC,-0.844
6,UCAGAAA,-0.266
7,UCCCAAU,-0.854
8,GAGCUCU,-0.704
9,UGCCAGU,-0.438
10,UCAUACA,-0.509
11,AACCUAU,-0.893
12,GCACCCC,-0.0382
13,UGGCGAC,0.576
14,GGCAAGU,0.68
15,AGGCAGG,1.8
16,AGCCGUC,-0.545
17,AAAGUCG,-0.0155
18,AAUACAC,-0.584
19,UAUCGGC,-0.597
20,UCCCCUU,-0.545
21,GUUAGAU,0.215
22,CUUACGU,-0.841
